{
  "source": "the supplement of paper PMC4604168 (melanoma cell lines)",
  "note": "This is one part of the list. Repeats are few or missing, and single values can be far off.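 Further: cells treated in 1,536-well plates, then fixed and DAPI-stained, with nuclei counted from automated high-throughput microscope images.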",
  "data": [
    {"system": "MeWo", "experiment": "cell count relative to DMSO control; melanoma cells; higher = more viable cells", "settings": "library dose: standard library concentration; 72 h", "units": {"cell count": "%"}, "values": [
      {"smiles": "CCCCCCCCc1ccc(CCC(N)(CO)CO)cc1", "note": "[fingolimod] + COC(=O)c1sccc1S(=O)(=O)Nc1ccc(Nc2ccccc2)cc1OC [GSK0660] (first compound 10 µM, partner dose 5 µM)", "cell count": 42.8},
      {"smiles": "CCCCCCCCc1ccc(CCC(N)(CO)CO)cc1", "note": "[fingolimod] + CCCCCCCCCCCC1=C(O)C(=O)C=C(O)C1=O [Embelin] (first compound 10 µM, partner dose 6 µM)", "cell count": 54.4},
      {"smiles": "NC(=O)c1ccc(N(C(N)=O)c2c(F)cccc2F)nc1-c1ccc(F)cc1F", "note": "+ CN1CCN(c2ccc3nc(-c4c(N)c5c(F)cccc5[nH]c4=O)[nH]c3c2)CC1 [Dovitinib] (first compound 2 µM, partner dose 0.5 µM)", "cell count": 41.8},
      {"smiles": "CC(C)(C)c1cnc(CSc2cnc(NC(=O)C3CCNCC3)s2)o1", "note": "+ NCC(=O)Nc1ccc(-n2nc(C(F)(F)F)cc2-c2ccc3c(ccc4ccccc43)c2)cc1 [OSU03012] (first compound 0.05 µM, partner dose 5 µM)", "cell count": 90.4},
      {"smiles": "CCCCCCCCc1ccc(CCC(N)(CO)CO)cc1", "note": "[fingolimod] + NC1(c2ccc(-c3nc4ccn5c(=O)[nH]nc5c4cc3-c3ccccc3)cc2)CCC1 [MK2206] (first compound 10 µM, partner dose 2 µM)", "cell count": 35.4},
      {"smiles": "CC(C)(C)c1cnc(CSc2cnc(NC(=O)C3CCNCC3)s2)o1", "note": "+ Oc1cc(-c2nc(-c3ccccc3)[nH]c2-c2ccncc2)ccc1Cl [L779450] (first compound 0.05 µM, partner dose 1 µM)", "cell count": 88.1},
      {"smiles": "CCc1ccc(CCOc2ccc(CC3SC(=O)NC3=O)cc2)nc1", "note": "(configuration not stated) [pioglitazone] + Oc1nc(-c2ccc(C(F)(F)F)cc2)nc2c1CSCC2 [XAV939] (first compound 10 µM, partner dose 10 µM)", "cell count": 99.4},
      {"smiles": "COc1cc2c(Oc3ccc4[nH]c(C)cc4c3F)ncnc2cc1OCCCN1CCCC1", "note": "[cediranib] + Cn1cc(/C=C2\\C(=O)Nc3cccnc32)c2ccccc21 [GW441756] (first compound 2 µM, partner dose 2 µM)", "cell count": 110},
      {"smiles": "CCCCCCCCc1ccc(CCC(N)(CO)CO)cc1", "note": "[fingolimod] + Cn1cncc1[C@@](N)(c1ccc(Cl)cc1)c1ccc2c(c1)c(-c1cccc(Cl)c1)cc(=O)n2C [tipifarnib] (first compound 10 µM, partner dose 0.05 µM)", "cell count": 6.66},
      {"smiles": "CCc1ccc(CCOc2ccc(CC3SC(=O)NC3=O)cc2)nc1", "note": "(configuration not stated) [pioglitazone] + Cc1cc([N+](=O)[O-])ccc1NS(=O)(=O)c1cc(Cl)ccc1Cl [FH535] (first compound 10 µM, partner dose 5 µM)", "cell count": 83.5},
      {"smiles": "CCCCCCCCc1ccc(CCC(N)(CO)CO)cc1", "note": "[fingolimod] + COCC[n+]1c2c(n(Cc3cnccn3)c1C)C(=O)c1ccccc1C2=O [YM155] (first compound 10 µM, partner dose 0.002 µM)", "cell count": 28.4},
      {"smiles": "NC(=O)c1ccc(N(C(N)=O)c2c(F)cccc2F)nc1-c1ccc(F)cc1F", "note": "+ O=C1NC(=O)/C(=C/c2ccc(-c3ccc(F)cc3O)o2)S1 [AS252424] (first compound 2 µM, partner dose 5 µM)", "cell count": 87.1},
      {"smiles": "NC(=O)c1ccc(N(C(N)=O)c2c(F)cccc2F)nc1-c1ccc(F)cc1F", "note": "+ Cc1nc(Nc2ncc(C(=O)Nc3c(C)cccc3Cl)s2)cc(N2CCN(CCO)CC2)n1 [dasatanib] (first compound 2 µM, partner dose 0.02 µM)", "cell count": 88.5},
      {"smiles": "CC(C)(C)c1cnc(CSc2cnc(NC(=O)C3CCNCC3)s2)o1", "note": "+ COc1cc2c(Oc3ccc4[nH]c(C)cc4c3F)ncnc2cc1OCCCN1CCCC1 [cediranib] (first compound 0.05 µM, partner dose 2 µM)", "cell count": 74.8},
      {"smiles": "Cc1ccc(NC(=O)c2cccc(N(C)C)c2)cc1NC(=O)c1ccc(O)cc1", "note": "+ CO[C@@H]1[C@H](N(C)C(=O)c2ccccc2)C[C@H]2O[C@]1(C)n1c3ccccc3c3c4c(c5c6ccccc6n2c5c31)C(=O)NC4 [Midostaurin] (first compound 10 µM, partner dose 0.4 µM)", "cell count": 68.4},
      {"smiles": "CCCCCCCCc1ccc(CCC(N)(CO)CO)cc1", "note": "[fingolimod] + Oc1nc(-c2ccc(C(F)(F)F)cc2)nc2c1CSCC2 [XAV939] (first compound 10 µM, partner dose 10 µM)", "cell count": 81.7},
      {"smiles": "Cc1ccc(NC(=O)c2cccc(N(C)C)c2)cc1NC(=O)c1ccc(O)cc1", "note": "+ CN(NC(=O)CC(=O)NN(C)C(=S)c1ccccc1)C(=S)c1ccccc1 [STA4783] (first compound 10 µM, partner dose 0.03 µM)", "cell count": 10.9}
    ]}
  ]
}
